# According to PMC4336329 (PLoS ONE, 2015):
# In all, about 310,000 compounds went through this assay and about 2,200 (0.71%) showed an effect of 50% or more. The effect is printed as a negative number. The list shows a part of the results.
# Target: human ether-à-go-go-related gene (hERG) potassium channel (human, UniProt Q12809)
# Assay: primary screen, population patch clamp on CHO cells stably expressing hERG
# Chain of human ether-à-go-go-related gene (hERG) potassium channel (Q12809 whole entry, looked up): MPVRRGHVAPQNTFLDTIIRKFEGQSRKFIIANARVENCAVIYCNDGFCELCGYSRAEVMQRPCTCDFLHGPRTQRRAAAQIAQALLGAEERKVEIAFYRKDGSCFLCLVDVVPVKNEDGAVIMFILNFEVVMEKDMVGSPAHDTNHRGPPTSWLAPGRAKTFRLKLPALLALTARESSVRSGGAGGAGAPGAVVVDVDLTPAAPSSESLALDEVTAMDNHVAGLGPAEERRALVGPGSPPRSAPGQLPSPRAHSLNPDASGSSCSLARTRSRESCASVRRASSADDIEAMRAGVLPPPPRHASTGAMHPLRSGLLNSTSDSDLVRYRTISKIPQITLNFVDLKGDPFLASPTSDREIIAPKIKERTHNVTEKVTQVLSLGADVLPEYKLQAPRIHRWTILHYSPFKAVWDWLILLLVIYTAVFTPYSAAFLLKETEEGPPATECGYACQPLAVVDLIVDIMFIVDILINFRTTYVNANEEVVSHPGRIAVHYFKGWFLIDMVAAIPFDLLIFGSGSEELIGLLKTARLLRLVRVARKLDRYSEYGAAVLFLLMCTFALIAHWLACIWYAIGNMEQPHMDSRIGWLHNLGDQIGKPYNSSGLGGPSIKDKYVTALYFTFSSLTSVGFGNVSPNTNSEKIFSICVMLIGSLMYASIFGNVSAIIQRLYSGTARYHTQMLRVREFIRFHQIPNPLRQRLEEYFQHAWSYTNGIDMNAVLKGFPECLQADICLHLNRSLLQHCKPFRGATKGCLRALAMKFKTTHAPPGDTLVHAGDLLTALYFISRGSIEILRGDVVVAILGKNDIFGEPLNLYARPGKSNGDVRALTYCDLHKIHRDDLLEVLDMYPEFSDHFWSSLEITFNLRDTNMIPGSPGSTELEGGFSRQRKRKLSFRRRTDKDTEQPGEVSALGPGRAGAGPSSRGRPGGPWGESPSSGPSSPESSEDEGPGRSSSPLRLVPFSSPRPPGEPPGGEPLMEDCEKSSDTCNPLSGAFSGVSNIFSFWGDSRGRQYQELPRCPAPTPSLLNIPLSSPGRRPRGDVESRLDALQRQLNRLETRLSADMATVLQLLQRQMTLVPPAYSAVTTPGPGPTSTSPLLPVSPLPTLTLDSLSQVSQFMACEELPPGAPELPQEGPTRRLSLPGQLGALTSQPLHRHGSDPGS
row,Structure (SMILES),"hERG current change (%, negative = inhibition) at 1uM [%]"
1,CC(C)(C)NCc1ccccc1OCc1cccs1.Cl,19.3
2,Cc1nnc2c(NCCC(C)C)nc3ccccc3n12,13.3
3,CCOc1cc(NC(=O)c2ccccc2OC)c(OCC)cc1NC(=O)c1ccccc1,12.9
4,CC1=C(C(N)=O)S(=O)(=O)c2ccccc21,11.3
5,COc1ccc(NC(=O)C2C3C=CC(C3)C2C(=O)NCc2ccco2)cc1 (centres unmarked),-7.31
6,COc1ccc(NC(=O)CCc2ccc(OC)c(OC)c2)cn1,11.9
7,O=C(Cc1ccc([N+](=O)[O-])cc1)c1ccc(O)cc1O,-6.24
8,COc1ccc(C(CCN2CCCCC2)c2c(O)cc(OC)cc2OC)cc1 (centres unmarked),-71.3
9,COc1ccc(CCNCCC(=O)Nc2c(C)cc(C)cc2C)cc1OC.Cl,-2.34
10,Cc1cc2c(c(=O)n1Cc1ccccn1)C(c1ccc3c(c1)OCO3)C(C#N)=C(N)O2 (centres unmarked),4.13
11,CC1Cc2ccccc2N1C(=O)COC(=O)/C=C/c1ccc(F)cc1 (centres unmarked),4.39
12,Cc1c(NC(=O)CN2CCN(c3cccc(Cl)c3)CC2)c(=O)n(-c2ccccc2)n1C,14.4
13,COc1cc(C2C(C#N)=C(N)Oc3c2oc(CO)cc3=O)ccc1OC(C)C (centres unmarked),10.6
14,CCc1ccc(S(=O)(=O)NCc2cn3c(C)csc3n2)s1,6.79
15,CCOc1ccc(N=Cc2c(O)n(-c3cc(C)cc(C)c3)c(=O)[nH]c2=O)cc1,10.8
16,O=C(Nc1nc2ccc(S(=O)(=O)N3CCCC3)cc2s1)c1cccs1,13.2
17,CCCSc1nc2c(c(=O)[nH]c(=O)n2C)n1CC(O)COc1ccccc1 (centres unmarked),6.58
18,COc1ccc(-n2cnnc2SCC(=O)N(C)c2ccccc2)cc1,8.45
19,CCOc1ccc(NS(=O)(=O)c2ccc(N)cc2)cc1,16.7
20,CC1CN(c2nnc(-c3ccccc3)c3ccccc23)CC(C)O1 (centres unmarked),9.51

row,Structure (SMILES),"hERG current change (%, negative = inhibition) at 1uM [%]"
1,COc1ccc(S(=O)(=O)c2ccc(OC)c(OC)c2)cc1OC,7.86
2,COc1ccc(S(=O)(=O)NCc2cccnc2)c2ccccc12,9.51
3,CCNC(=O)c1ccccc1NC(=O)C1CC(=O)N(C(C)C)C1 (centres unmarked),10.1
4,CCOc1ccc(N2C(=O)CC(SC(=NC)Nc3cccc(F)c3)C2=O)cc1 (centres unmarked),-0.651
5,O=c1[nH]c2ccc(S(=O)(=O)N3CCCCC3)cc2[nH]1,13.9
6,COc1cc(-n2c(C)nc3cc(C(=O)N4CCOCC4)ccc32)cc(OC)c1OC,-1.13
7,Cc1onc(-c2c(F)cccc2Cl)c1C(=O)OCC(=O)c1c[nH]c2ccccc12,11.9
8,COCC(=O)N1CCc2ccc(NC(=O)c3ccc(C(F)(F)F)cc3)cc2C1,0.619
9,Nc1nnc(COc2ccccc2)s1,7
10,Cc1ccc(N(CC(=O)NCc2cccs2)S(=O)(=O)c2cccs2)cc1,-1.25
11,COC(=O)c1c(NC(=O)CC2SC(N)=NC2=O)sc2c1CCC(C)C2 (centres unmarked),8.08
12,Cc1csc(NC(=O)Nc2cccc(Cl)c2)n1,-1.41
13,O=C(Nc1nnc(-c2ccco2)o1)C1CCCCC1,2.48
14,NCCSc1c(-c2ccc(Cl)cc2)[nH]c2ccccc12,-10.9
15,Oc1ccc(/C=N/N=C/c2ccc(O)cc2)cc1,10.8
16,Cc1cccc(C)c1Nc1nnc(SCC(=O)c2ccc3c(c2)NC(=O)CO3)s1,9.58
17,COC(=O)CNC(=O)Cn1ccc2ccccc2c1=O,12.5
18,COCCNC(=S)NNC(=O)c1ccc(-n2cnnn2)cc1,-3.01
19,COC(=O)C1=C(C)N(Cc2ccccc2)C(=O)N[C@H]1c1ccco1,17.7
20,C/C(CC(=O)Nc1ccc2c(c1)OCCO2)=N\NC(=O)COc1ccccc1C,16.6

row,Structure (SMILES),"hERG current change (%, negative = inhibition) at 1uM [%]"
1,CC1CCN(C(=O)CSc2nnc(CNC(=O)c3c(F)cccc3F)o2)CC1,1.18
2,COCCn1nnnc1C(c1cccc(OC)c1OC)N1CCN(C(=O)c2ccco2)CC1.Cl (centres unmarked),20.1
3,CSc1ccccc1NC(=O)C1=CC(c2cccs2)=NS(=O)(=O)N1C,7.25
4,c1ccc(C2=NNC(=NCc3ccc4c(c3)OCO4)SC2)cc1,-9.27
5,O=C(NCc1ccc(-c2csnn2)cc1)c1cccs1,3.72
6,Nc1cc(N)nc(SCC(=O)Nc2cccc(S(=O)(=O)N3CCCCC3)c2)n1,8.66
7,CSCC[C@H](NC(=O)NC1CCCC1)C(=O)O,12.8
8,CCOc1cc(C(=O)Nc2cccc3ncccc23)cc(OCC)c1OCC,-2.81
9,CCCNC(=O)c1ccc(OC)cc1OC,14.2
10,COc1cc(/C=N/NS(=O)(=O)c2ccccc2)ccc1OS(=O)(=O)c1ccc(C)cc1,10.5
11,S=c1[nH]nc(-c2ccncc2)n1/N=C/c1ccccc1,16.5
12,O=S(=O)(NC1CCCCC1N1CCCCC1)c1ccc(Cl)cc1 (centres unmarked),6.42
13,CSCCC1COC(c2cccs2)=N1 (centres unmarked),13.4
14,COc1cccc(-c2csc(N3CCN(CC(=O)NNC(=O)c4ccco4)CC3)n2)c1,4.94
15,O=C(O)Cn1c2ccccc2c2ccccc21,14.3
16,O=C(CC1C(=O)NCCN1Cc1ccc(F)cc1)NC1CCCCCCC1 (centres unmarked),5.24
17,CC(=O)Nc1ccc(S(=O)(=O)N(C)CC(=O)OC(C)C(=O)NC2CCCCC2)cc1 (centres unmarked),8.91
18,CCOC(=O)c1nc2nc(-c3cccs3)cc(C(F)(F)F)n2n1,21.1
19,CSC(=NCCCN1CCOCC1)NS(=O)(=O)c1cccs1,7.43
